# Measurements reported in PubChem BioAssay AID1347073 (National Center for Advancing Translational Sciences (NCATS), 2019).
# Screen size: about 45,000 compounds; about 200 (0.44%) were called active. Another 7% or so got no clear call; they are omitted. The call rests on the fitted dose curve; in most records, active means well fitted activation curve with a large enough effect; inconclusive means small, poorly fitted or top-dose-only effect; inactive means no such curve, though single readings can be large or run the other way. The list shows a part of the results.
# Assay: qHTS of TDP-43 Inhibitors: NCGC Sytravon Library Screen; further: 0% is about no effect; nearly all actives have a fitted effect of over 55% in size
# Settings: yeast TDP-43 toxicity rescue, BacTiter-Glo growth, 24 h; series mostly up to 46.1 µM; growth rescue (activation): at the top concentration
# Method in brief: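 TDP-43-expressing yeast, pregrown in raffinose, seeded at OD600 0.02 in galactose medium with compound for 24 hr at 30 deg C. Growth read by BacTiter-Glo luminescence, so rescue of toxicity appears as activation.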
row,SMILES,growth rescue (activation)
1,O=C(O)c1[nH]c2ccccc2c1CC(=O)N1CCN(c2ccccc2)CC1,inactive: -1.76%
2,Cc1[nH]c(=O)c(C#N)c(C)c1CCC(=O)NCc1cccc(C(F)(F)F)c1,inactive: -8.88%
3,Cc1cc(C)cc(C(O)c2ncc(-c3cccc(F)c3)[nH]2)c1 (centres undefined),inactive: -1.8%
4,CN(Cc1ccccc1F)C(=O)CCCNC(=O)c1ccc(Cl)cc1,inactive: -24.9%
5,COc1cc(NC(=S)N2CCCCC2C)cc(OC)c1OC (centres undefined),inactive: -5.04%
6,CC(C)(C)Sc1ccc2nc3c(n2c1)CCCC3,inactive: 3.06%
7,NC(=O)NC(=O)C(Nc1ccc(N2CCCCC2)cc1)c1ccccc1 (centres undefined),inactive: 15.8%
8,COc1ccc2nc(NC(=O)CC3Oc4ccccc4NC3=O)sc2c1 (centres undefined),inactive: 0.0653%
9,CCCn1c(N2CCN(CC(=O)c3c(C)n(C)c4ccc(OC)cc34)CC2)nc2c1c(=O)[nH]c(=O)n2C,inactive: -0.0566%
10,CC(=O)Nc1ccc(Nc2ccc([N+](=O)[O-])cn2)cc1,inactive: 20.2%
11,COc1ccc(Cl)cc1C(=O)NNC(=O)c1cccs1,inactive: 21.4%
12,O=C(NCCNC(=O)c1cccc(O)c1)c1cccc(O)c1,inactive: -10.9%
13,CCOC(=O)c1sc2nc(C)nc(N3CCN(S(=O)(=O)c4ccccc4)CC3)c2c1C,inactive: 15%
14,CCOc1cc(NCCN2CCOCC2)c([N+](=O)[O-])cc1OCC,inactive: 4.25%
15,Cc1ccsc1/C=C/c1n[nH]c(=O)c(C#N)c1C,inactive: 10.1%
16,O=C(N/N=C/c1[nH]c2ccccc2c1Cl)c1cccc(Br)c1,inactive: -1.29%
17,Cc1ccc[n+](CC(=O)N2CCCCC2)c1C,inactive: -4.67%
18,CCCS(=O)(=O)NC(=O)C1(C)CCN(C(=O)Cc2ccc(OC)c(OC)c2)C1 (centres undefined),inactive: -2.19%
19,COc1ccc2[nH]c(C)c(C(=O)CN3CC(C)OC(C)C3)c2c1 (centres undefined),inactive: 25.7%
20,COCCNC(=O)C1(C)CCCN(C(=O)c2ccco2)C1 (centres undefined),inactive: 5.65%
21,Cn1nnnc1SCSc1nnnn1C,inactive: -15.7%
22,Cc1ccsc1C(=O)OCC(=O)NCC1CCCO1 (centres undefined),inactive: -8.46%
23,OC[C@@H]1CN(Cc2ccc(Cl)cc2)C[C@H](n2cnc3c(Nc4ccccc4)ncnc32)O1,inactive: 16.3%

row,SMILES,growth rescue (activation)
1,O=C(NC1CCCC1)c1ccc(Cl)c(S(=O)(=O)N2CCCCC2)c1,inactive: -7.88%
2,O=C(NCc1cccs1)[C@@H]1CCCN1S(=O)(=O)c1ccccc1F,inactive: 19.4%
3,O=C(CCc1n[nH]c(=O)[nH]c1=O)N/N=C/c1ccco1,inactive: -2.19%
4,O=C(CCNc1n[nH]c(=O)[nH]c1=O)N/N=C/c1ccc(Cl)cc1,inactive: -1.28%
5,COc1cc(OC)nc(C(NC(=O)C2CCN(Cc3ccc(Oc4ccccc4)cc3)CC2)c2ccc(F)cc2)n1 (centres undefined),inactive: -12%
6,COc1ccc(N(C)S(=O)(=O)c2cccc(C(=O)OCC(=O)N3CC(C)CC(C)C3)c2)cc1 (centres undefined),inactive: 28.6%
7,CCCS(=O)(=O)N1CCC(C(=O)NCc2cccnc2)CC1,inactive: 17.7%
8,Cc1ccc(/C=N/Nc2cc(C)nc(NCc3ccccc3)n2)cc1,inactive: -0.107%
9,COc1cc(OC)cc(C(=O)Nc2cccnc2)c1,inactive: 5.2%
10,Cc1cc(C(=O)NCc2ccc(F)cc2)c2ccccc2n1,inactive: 6.79%
11,C/C(=C\c1ccccc1)C(=O)NCCc1ccccc1,inactive: 5.1%
12,O=C(CNS(=O)(=O)c1ccccc1)Nc1ccc2c(c1)OCO2,inactive: -5.26%
13,COc1ccc2cc(C(c3nnnn3C3CCCC3)N3CCOCC3)c3nnnn3c2c1 (centres undefined),inactive: 2.04%
14,CCOC(=O)C1(C)CCCN(C(=O)c2ccc3c(c2)OCO3)C1 (centres undefined),inactive: 11.1%
15,CC(C)(C)NNC(=S)Nc1ccc(S(=O)(=O)N2CCOCC2)cc1,inactive: 14.6%
16,CSc1ccccc1C(=O)NC1CCCc2ccccc21 (centres undefined),inactive: 11.8%
17,CN(C(=O)COc1cc(C(F)(F)F)nn1C)c1ccccc1,inactive: 12.8%
18,CCOc1cc(/C=N\NC(=O)c2ccc(C)nc2)ccc1OC(=O)c1ccc(F)cc1,inactive: 1.02%
19,CC(=O)C1=C(C)OC(N)=C(C#N)C1c1cccnc1 (centres undefined),inactive: 15.1%
20,CNC(=O)c1c(Cl)cnn1-c1ccccc1,inactive: 2.09%
21,COc1cc(NS(=O)(=O)c2ccc(Cl)cc2)c(C(=O)O)cc1OC,inactive: 16%
22,O=C(OCc1cc(=O)n2ccsc2n1)c1ccccc1O,inactive: 26.1%
23,COc1cc(-c2cc(C(=O)OCC(=O)NC3CC3)c3ccccc3n2)cc(OC)c1OC,inactive: 4.17%

row,SMILES,growth rescue (activation)
1,N=C1C(c2ccccc2)=C(O)CN1c1cccc(S(=O)(=O)Nc2cccc(C(F)(F)F)c2)c1,inactive: 10.6%
2,CCOc1c(/C=C(\C#N)C(N)=O)c2ccccc2n1CC,inactive: 14.2%
3,COC(=O)C1=C(C)Nc2nnnn2C1c1ccc(Cl)cc1Cl (centres undefined),inactive: -8.7%
4,COC(=O)c1ccc(CSc2nnc(-c3ccncc3)o2)o1,inactive: 0.814%
5,COc1cccc(/C=C/C(=O)NCc2ccc(S(N)(=O)=O)cc2)c1,inactive: 20.6%
6,Cc1nnn(C23CC4CC(CC(CC(=O)Nc5cccc(F)c5)(C4)C2)C3)n1,inactive: 20.9%
7,Cc1cc(C)c(Cn2c(=O)n(CCCCCC(=O)NCc3ccc4c(c3)OCO4)c(=O)c3sccc32)c(C)c1,inactive: 5.57%
8,COc1ccccc1CNC(=O)c1sccc1-c1ccccc1,inactive: 40.6%
9,CC(=O)c1ccc(NC(=O)C2CCN(S(=O)(=O)c3cccc4nonc34)CC2)cc1,inactive: 8.64%
10,CN(C)CCNc1c(N)c(=O)oc2ccccc12,inactive: -2.79%
11,CCC(Oc1ccccc1)C(=O)N(CC)CC(=O)NCc1ccc(F)cc1 (centres undefined),inactive: 16.5%
12,O=S(=O)(c1cccc(C(F)(F)F)c1)N(CCCN1CCOCC1)Cc1cccs1,inactive: -5.75%
13,Cc1ccc(C(=O)OCC(=O)N2CC(C)OC(C)C2)cc1 (centres undefined),inactive: 6.45%
14,COc1cc(CN2CCNC(=O)C2CC(=O)N2CCCCO2)cc(OC)c1 (centres undefined),inactive: 10.1%
15,COc1ccccc1CNC(=O)C(CCSC)NC(=O)c1cccc(S(=O)(=O)N2CCOCC2)c1 (centres undefined),inactive: 13.2%
16,COCCNC(=O)Cn1nc(-c2ccc(Cl)cc2)c2ccccc2c1=O,inactive: -1.89%
17,CCOC(=O)C1=C(C)NC(C)=C(C(=O)OCC)C1C(=O)OCC(=O)N1CCOCC1,inactive: 2.82%
18,COc1ccccc1NC(=O)Cc1nnc(SCC(=O)c2ccc(F)cc2)n1C,inactive: -3.57%
19,CC1CC(=O)Nc2ccccc2N1C(=O)CSc1nnnn1C (centres undefined),inactive: 1.02%
20,Cc1nnc(SCC2=C(C(=O)O)N3C(=O)C(NC(=O)Cn4ncc(Cl)c4C)C3SC2)s1 (centres undefined),inactive: 2.48%
21,O=C(CN(C(=O)Cn1nnc(-c2ccc(F)cc2)n1)c1ccc(F)cc1)NC1CCCC1,inactive: -5.54%
22,O=C(NCc1ccccc1F)c1ccc(S(=O)(=O)Nc2cccc(C(F)(F)F)c2)cc1,inactive: -11.6%
23,Cc1ccc(S(=O)(=O)N2CC=C(c3c(C)n(C)c4ccccc34)CC2)cc1,inactive: -9.89%
